# Test results as given in PubChem BioAssay AID686979 (National Center for Advancing Translational Sciences (NCATS), 2013).
# Hit rate of the full screen: of about 420,000 compounds, about 50,000 (12%) were called active. The inconclusive results got no clear call from the source; some entries with a clear call stand among them for comparison. Calls come from the whole dose curve; as a rule, active = well fitted inhibition curve with a large enough effect; inconclusive = small, poorly fitted or top-dose-only effect; inactive = flat fitted curve, though single readings scatter. No potency is given beside an inconclusive call; the fits are too rough.
# Assay: qHTS for Inhibitors of human tyrosyl-DNA phosphodiesterase 1 (TDP1): qHTS in cells in presence of CPT; note: nearly all actives have a fitted effect of over 55% in size
# Conditions: chicken DT40 Tdp1-/-;hTDP1 cells + 20 nM CPT, ATP luminescence, 48 h; activity change, negative = growth inhibition: at 46.2 µM (top of the series) unless noted
# Method in brief: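 Cell growth measured by CellTiter-Glo luminescence after a minimum 48 h, 37 C compound exposure with 20 nM CPT in Tdp1-knockout DT40 cells stably expressing hTDP1, seeded 400/well; qHTS titration format.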
# % is set by controls: 0 for no effect and ±100 for the full control effect; potency is the fitted concentration of half-maximal effect; tags give direction and shape of the fitted curve.
Compound,"activity change, negative = growth inhibition",Potency
OC(c1ccccc1)c1nc2ccccc2[nH]1 (stereo not given),inactive: -0.505%,–
CC[C@]12c3[nH]c4cc(-c5ccco5)ccc4c3CCN1C(=O)[C@@H](CC(=O)NCC13CC4CC(CC(C4)C1)C3)C[C@@H]2C(=O)N1CCN(C(=O)C2CC2)CC1,–,"inconclusive [inhibitor, single point]"
Clc1ccc(-c2ccnc(-n3cccc3)n2)s1,inactive: -10.5%,–
CCCCOC(=O)/C=C\C(=O)OCCCC,inactive: -26.3%,–
Clc1cccc(Cl)c1/C=C/c1ccn[nH]1,–,active: 18.4 µM
CCCCCOc1ccc(C(=O)CCC(=O)NC(C)c2ccc(S(N)(=O)=O)cc2)cc1 (stereo not given),–,"inconclusive [inhibitor, single point]"
COc1ccc(Cl)cc1C(=O)Nc1ccc2nc(Nc3cccc(Cl)c3)cc(C)c2c1,–,active: 20.6 µM
O=C1NN=C(c2ccccc2)CC1c1c[nH]c2ccccc12 (stereo not given),–,"inconclusive [inhibitor, single point]"
CCCc1ccc(S(=O)(=O)N2CCC(c3nnc(-c4cccc(C)c4)o3)CC2)cc1,–,active: 5.17 µM
N#C/C(=C\c1ccc(O)cc1)c1nc2ccccc2o1,inactive: 0.243%,–
C[C@H]1COC(=O)[C@@H](Cc2ccc(F)cc2)C/C=C\C[C@@H](CC(=O)NCCO)C(=O)N1,inactive: -19.3%,–
CN(CC1CCCO1)S(=O)(=O)c1ccc(C(=O)Nc2nc(-c3ccccn3)cs2)cc1 (stereo not given),–,active: 1.46 µM
CC(=O)NCCn1c(SCc2ccc(C)cc2C)nc2ccccc2c1=O,–,active: 10.3 µM
CCOC(=O)N1CCN(CC(=O)c2c(C)[nH]c3ccccc23)CC1,–,active: 18.4 µM
CC1(C)Oc2c(ccc(O)c2CN2CCOCC2)C2=C1CCCC2,–,"inconclusive [inhibitor, single point]"
CCn1cc(CNC(=O)c2ccc(C)s2)cn1,–,"inconclusive [inhibitor, single point]"
O=C(Nc1ccc2c(c1)OCO2)C1Cc2c(-c3ccc(Cl)cc3)ccnc2O1 (stereo not given),–,"inconclusive [inhibitor, partial curve, poor fit]"
CCOC(=O)[C@]12CCC=C1N(Cc1ccc3c(c1)OCO3)C(=O)[C@H](CC(=O)N1CCCC1)C2,–,"inconclusive [inhibitor, single point]"
Cc1ccccc1CSCC1Nc2ccc(C(=O)NCCc3ccccc3)cc2NC1=O (stereo not given),–,"inconclusive [inhibitor, single point]"
CC(=O)CCS(=O)(=O)c1ccc(NC(C)=O)cc1,–,active: 13 µM
O=C(c1ccc(CS(=O)(=O)c2ccc(Br)cc2)o1)N1CCCC1,–,"inconclusive [inhibitor, partial curve]"
O=C(CSC1=Nc2ccccc2C2CC=NN12)Nc1ccc(F)cc1Cl (stereo not given),–,"inconclusive [inhibitor, single point]"
COc1ccc(CCNC(=O)CN2C(=O)NC(c3ccccc3)(c3ccccc3)C2=O)cc1,–,"inconclusive [inhibitor, single point]"

Compound,"activity change, negative = growth inhibition",Potency
CCOC(=O)c1c(-c2cccc([N+](=O)[O-])c2)cn2ccccc12,–,"inconclusive [inhibitor, single point]"
O=C(NCCN1CCCC(O)C1)c1cc(COc2cccc(C(F)(F)F)c2)on1 (stereo not given),inactive: -25.5%,–
Cc1ccc(S(=O)(=O)NCC(=O)NCC(=O)OCC(=O)N2CC(=O)Nc3ccccc32)cc1C,–,"inconclusive [inhibitor, single point]"
CCn1c(=O)c2cc(C(=O)NCCCN3CCN(c4ccc(F)cc4)CC3)sc2c2ccccc21,–,active: 18.4 µM
CN=c1scc(-c2ccco2)n1/N=C/c1ccc(O)c(O)c1,–,active: 4.61 µM
CCN(CC)S(=O)(=O)c1cccc(C(=O)Nc2ccc3c(c2)OCO3)c1,–,"inconclusive [inhibitor, partial curve]"
C=C(C)C(=O)Oc1ccc(N2C(=O)[C@@H]3C4C=CC(C4)[C@@H]3C2=O)cc1,–,"inconclusive [inhibitor, single point]"
Cc1ccc2nc(N)nnc2c1,–,"inconclusive [inhibitor, full curve, poor fit]"
OCCNc1nc(-c2ccccc2)c2ccccc2n1,–,"inconclusive [inhibitor, partial curve]"
CCc1ccc2[nH]c(=O)c(CN(CCN(CC)CC)C(=S)NCc3ccco3)cc2c1,–,"inconclusive [inhibitor, single point]"
CC(C)Oc1ccc(CNC(=O)c2ccc3c(c2)nc2n3CCCCC2)cc1,–,"inconclusive [inhibitor, single point]"
O=C(c1ccc(N2CCCC2=O)cc1)N1CCN(c2ccccc2O)CC1,inactive: -24.2%,–
Cc1ccc(CS(=O)Cc2ccc(C(=O)NCc3ccc4c(c3)OCO4)o2)cc1 (stereo not given),–,"inconclusive [inhibitor, single point]"
CCOC(=O)NC(C(F)(F)F)(C(F)(F)F)P(=O)(c1ccccc1)c1ccccc1,–,"inconclusive [inhibitor, partial curve]"
Cc1ccc(S(=O)(=O)N(CC(=O)N/N=C/c2ccco2)c2cc(Cl)cc(Cl)c2)cc1,inactive: -25.6%,–
COc1ccc(CNc2ncnc3ccc(-c4ccccc4C#N)cc23)c(OC)c1,–,"inconclusive [inhibitor, single point]"
COc1ccc(NC(=O)COc2ccc(N(C)S(=O)(=O)c3ccc(Cl)cc3)cc2)cc1OC,–,active: 7.31 µM
COCCn1c(=O)c(-c2cccs2)nc2cnc(OCc3ccccc3)nc21,inactive: 38.9%,–
COc1ccc(OC)c(-c2csc(NC(=O)c3ccc4c(c3)OCO4)n2)c1,–,"inconclusive [inhibitor, single point]"
O=C(O)CSc1cc(C(=O)c2ccccc2O)cn2c(=O)c3c(-c4ccccc4)csc3nc12,inactive: -17.7%,–
Cc1cccc(-n2c(=S)[nH]c3nc4c(cc3c2=O)COC(C)(C)C4)c1,inactive: 5.75%,–
O=C(Nc1ccc2ccccc2c1)C(c1ccccc1F)n1c(=O)c(-c2cc3ccccc3[nH]2)nc2ccccc21 (stereo not given),–,"inconclusive [inhibitor, single point]"
